The record followed here is paper PMC12040169 (PLOS Biology, 2025).

Molecules are shown by their SMILES. This is one part of the list.

The assay relates to T1, C. trachomatis L2/434/Bu expressing GFP (CTL2-GFP).
T1 construct: L2/434/Bu GFP intracellular growth in HeLa cells
The arrangement: species or system HeLa; C. trachomatis total inclusion area by high-content imaging, normalised to DMSO. The settings on record: total inclusion area; 28.5 h, 10 µM; inhibitor. Put shortly: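 After bulk GFP and resorufin fluorescence reads, cells were fixed, stained with Hoechst and imaged by high-content microscopy. Inclusion area and number (GFP) stood in for chlamydial growth, nuclei count (Hoechst) for host cell viability. MICs were derived as for the bulk readout.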
Turning to `CCOc1ccccc1NC(=O)c1cc2cccnc2n(Cc2ccc(Cl)cc2)c1=O` [CBK294395], the “% of control remaining” value was found to be 102.492.

As for `CCn1c(C(O)c2ccccc2)n[nH]c1=S` (centres unmarked) [CBK015110], the “% of control remaining” value was determined as 37.5138.

With `Cc1[nH]c2ccccc2c1C(=O)CCC(=O)O` [CBK260871], the “% of control remaining” value is 99.2638.

With `CC(=O)Nc1ccc(S(=O)(=O)Nc2ccc(C(=O)O)cc2)cc1` [CBK050427], the “% of control remaining” value was 96.2638.

On to `COc1cc2c(cc1OC)C(c1ccccc1)N(Cc1ccc(OCCO)cc1)CC2` (centres unmarked) [CBK286359], for which the “% of control remaining” value stood at 83.6848.

As to `CCN(CC)CCC(=O)c1ccc(Cl)cc1` [CBK015906C], the “% of control remaining” value was found to be 87.1895.

With `Cc1[nH]c2c(C)cccc2c1CC(=O)NC1CCCN(C)C1` (centres unmarked) [CBK282485], the “% of control remaining” value is listed as 100.215.

For `O=C(NCc1ccc2occc2c1)c1ccc2[nH]ccc2c1` [CBK149055], the “% of control remaining” value was found to be 101.907.

For the compound `CC(C)N1CCC(=NNC(=O)c2cc(O)c(O)c(O)c2)CC1` [CBK262626], the “% of control remaining” value was 105.994.

In the case of `Cc1c(C(=O)N2CCCC2C(N)=O)nnn1Cc1ccc(F)cc1F` (centres unmarked) [CBK305925], the “% of control remaining” value is 42.4111.

`Cc1ccccc1Nc1nc(N)nc(CN2CCCC2C(=O)N(C)C)n1` (centres unmarked) [CBK305638]: the “% of control remaining” value is 77.6024.

For `Cc1ncsc1C(=O)N1CCC2(C/C=C/C[C@H]3COCC[C@H]3NC(=O)[C@@H](CC(C)C)NC2=O)CC1` [CBK292187], the “% of control remaining” value worked out at 69.7985.

As to `O=C(NC(Cc1c[nH]c2ccccc12)C(=O)O)c1ccco1` (centres unmarked) [CBK217706], the “% of control remaining” value is 101.125.

Turning to `Cc1nc2ccc(C(=O)NC3CCN(Cc4ccccc4)CC3)cn2c1N(C)C(=O)c1cccs1` [CBK146529], the “% of control remaining” value is recorded as 96.0335.

`Cc1ccccc1Nc1nc(N)nc(CN2CCOCC2)n1` [CBK305646]: the “% of control remaining” value came to 62.9906.

Regarding `CCOC(=O)Cn1c(-c2cccs2)cc2cccnc21` [CBK282267], the “% of control remaining” value stood at 79.7409.

Consider `CO[C@H]1CC[C@H](C(=O)N2C3CCC2CC(O)(c2ccco2)C3)CC1` (some centres unmarked) [CBK284107], for which the “% of control remaining” value is listed as 76.0766.

For `Cc1ccc(-c2csc(NC(=O)c3c(C)noc3C)c2C(=O)NC2CC2)cc1` [CBK268141], the “% of control remaining” value came to 97.1909.

On to `CCNC(=O)N(C)c1c(CC)nc2c(OCC3CCCCC3)cccn12` [CBK147795], for which the “% of control remaining” value is on record as 73.9503.

Regarding `O=C(NCCCn1cccc1)N1CCN(Cc2ccc(F)cc2)CC1` [CBK306994], the “% of control remaining” value was 84.0659.

As for `CC(C)C(=O)N1CCN(C(=O)Cn2c(-c3ccc(Cl)cc3)n[nH]c2=S)CC1` [CBK297910], the “% of control remaining” value worked out at 90.1504.

With `COc1ccccc1-c1ccc(NC(=O)c2ccc3c(c2)ncn3C)cc1` [CBK285652], the “% of control remaining” value was 87.2603.

`Cc1sc2ccc(-c3ccccc3)cc2[n+]1CCCS(=O)(=O)[O-]` [CBK260947]: the “% of control remaining” value is on record as 89.5054.

`CNc1nc(SCC(=O)Nc2ccc(Cl)c(Cl)c2)nc(N2CCOCC2)n1` [CBK269559]: the “% of control remaining” value is reported as 84.7593.

On to `C=CCN(c1ccccc1)S(=O)(=O)c1ccc(Br)cc1CC` [CBK038344], for which the “% of control remaining” value was 75.9558.

On to `CC(Oc1cccc(Cl)c1)C(=O)O/N=C(\N)Cc1cccc2ccccc12` (centres unmarked) [CBK266033], for which the “% of control remaining” value is recorded as 126.425.

On to `Cc1c(Nc2cnn(C34CC5CC(CC(CC(=O)O)(C5)C3)C4)c(=O)c2Cl)c(=O)n(-c2ccccc2)n1C` [CBK268707], for which the “% of control remaining” value is on record as 105.262.

On to `CN(C)CCN1CCN(c2cccc(-c3ccncc3)n2)CC1` [CBK037029], for which the “% of control remaining” value is given as 121.164.

For `Cc1nc2c(c(=O)[nH]1)CC[C@@H]1CN(C(=O)c3occ4ccccc34)C[C@H]21` [CBK284408], the “% of control remaining” value turned out to be 76.8625.

On to `CS(=O)(=O)c1ccc(CNC(=O)c2ccccc2-n2cccc2)cc1` [CBK149612], for which the “% of control remaining” value amounted to 97.2397.

As for `O=C(c1ccc(F)cc1)C1CCN(CCc2c[nH]c3ccccc23)CC1` [CBK149125], the “% of control remaining” value came to 97.1121.

For the compound `CS(=O)(=O)Nc1ccc(-c2cccc(C(F)(F)F)c2)c2ccccc12` [CBK083746], the “% of control remaining” value was determined as 93.1857.

`O=C(Nc1ccc(Oc2ncccn2)cc1)c1csc(-c2ccccc2)n1` [CBK298324]: the “% of control remaining” value amounted to 80.2066.

As for `Cc1n[nH]c(C)c1CC(=O)N1CCCC(c2cc3ccccc3cn2)C1` (centres unmarked) [CBK285018], the “% of control remaining” value is 93.3414.

On to `Cc1nc(C(C)NC(=O)c2cc(C3CC3)nc3c2c(C)nn3C)cs1` (centres unmarked) [CBK304779], for which the “% of control remaining” value was 63.746.

Regarding `COc1ncc(-c2cncc(NCCc3ccccn3)n2)c(OC)n1` [CBK065287], the “% of control remaining” value was determined as 145.653.

As to `N#Cc1c[nH]c(C(=O)NC2CCN(C(=O)c3ccccc3)CC2)c1` [CBK306433], the “% of control remaining” value was determined as 47.279.

For `OCCC1CCCCN1c1cncc(-c2cccc(Cl)c2)n1` (centres unmarked) [CBK037906], the “% of control remaining” value came to 69.2907.

On to `CS(=O)(=O)Nc1nccnc1OC1CCN(CCc2c[nH]c3ccccc23)CC1` [CBK084282], for which the “% of control remaining” value came to 94.5173.

`CCC(CO)Nc1cncc(-c2ccc3c(c2)OCO3)n1` (centres unmarked) [CBK065970]: the “% of control remaining” value stood at 81.4877.

For the compound `COCCn1cc(CN2CCC(CO)C2)c2ccccc21` (centres unmarked) [CBK282123], the “% of control remaining” value was 91.6284.

`COc1ccc(C2=C(Nc3ccc(C(=O)NCc4cccnc4)cc3)c3ccccc3C2=O)cc1` [CBK263809]: the “% of control remaining” value is given as 108.479.

As for `CN1CCCC(NC(=O)Cn2nc(C(F)(F)F)c3c2CCCC3)C1` (centres unmarked) [CBK282548], the “% of control remaining” value turned out to be 126.84.

For the compound `CCc1c(C)nc2c(C(=O)NC(CC)COC)cnn2c1C` (centres unmarked) [CBK162133], the “% of control remaining” value is reported as 99.6342.

Regarding `O=C(CCCOc1ccc(Cl)cc1Cl)Nc1c[nH]c(=O)[nH]c1=O` [CBK264235], the “% of control remaining” value turned out to be 100.78.

`COc1ccc(-c2cc(C3CCN(C4CCSCC4)C3)[nH]n2)cc1` (centres unmarked) [CBK285282]: the “% of control remaining” value was 100.146.

With `N#Cc1c(SCC(=O)O)nc(-c2cccs2)c2c1CCCC2` [CBK269858], the “% of control remaining” value came to 81.0922.

Turning to `CC1CC1C(=O)NC1CCN(CC2(c3ccccc3)CC2)CC1` (centres unmarked) [CBK285353], the “% of control remaining” value amounted to 94.7518.

Consider `CC(C)OC(=O)Cc1nc(CN2CCOC(c3ccc(F)cc3)C2)cs1` (centres unmarked) [CBK305439], for which the “% of control remaining” value was determined as 125.908.

`COC(=O)c1ccsc1NC(=O)CN1CCNCC1` [CBK057080]: the “% of control remaining” value was 113.142.

For `O=C(CN1CCC(c2ccccc2F)CC1)NCc1ccco1` [CBK283550], the “% of control remaining” value was determined as 93.0464.

With `c1ccc(OCCN2CCC3(C2)NCCc2[nH]ccc23)cc1` (centres unmarked) [CBK084595T], the “% of control remaining” value is listed as 96.696.

On to `CCNC(=O)N1CC(C)N(CCCCc2ccc(F)cc2)C(C)C1` (centres unmarked) [CBK025027C], for which the “% of control remaining” value came out at 85.4184.

In the case of `CCOC(=O)C1(Cc2cc(-c3ccccc3F)no2)CCNCC1` [CBK284580], the “% of control remaining” value came to 44.5716.

`CCOc1cc2c(cc1NS(=O)(=O)c1cc(C(=O)O)ccc1C)OC(C)C2` (centres unmarked) [CBK296711]: the “% of control remaining” value amounted to 80.9327.

With `Cc1ccc2cc(CN(Cc3ccco3)S(C)(=O)=O)c(O)nc2c1` [CBK269409], the “% of control remaining” value was determined as 118.713.

Regarding `COc1cc2c(cc1NC(=O)c1ccc(C)c([N+](=O)[O-])c1)oc1ccccc12` [CBK263411], the “% of control remaining” value was determined as 72.3107.

For the compound `COC(=O)c1c(-c2ccncc2)csc1NC(=O)Cc1ccc([N+](=O)[O-])cc1` [CBK268119], the “% of control remaining” value is on record as 119.341.

Consider `O=[N+]([O-])c1ccc(CN2CCN(C3CCN(Cc4ccccc4)CC3)CC2)cc1` [CBK264310G], for which the “% of control remaining” value was found to be 99.2925.

On to `O=C(O)c1ccc(NS(=O)(=O)c2cccc([N+](=O)[O-])c2)cc1O` [CBK200022], for which the “% of control remaining” value amounted to 98.861.

For `COc1cccc(CN2CCC3(CC2)NC(=O)Cc2ccc(C)cc23)c1` [CBK040219], the “% of control remaining” value amounted to 90.972.

With `Cc1ccccc1Nc1ccccc1C(=O)O` [CBK012249], the “% of control remaining” value came out at 69.5372.

Consider `O=C(O)COC(=O)C1C(c2ccccc2)C(C(=O)O)C1c1ccccc1` (centres unmarked) [CBK263881], for which the “% of control remaining” value is listed as 116.205.

Turning to `C/N=c1\cccccc1NC` [CBK022788], the “% of control remaining” value was 64.8237.

As for `COc1cccc(OCc2cnc(-c3ccc(Cl)cc3)c(-c3cccc(CNC(C)=O)c3)c2)c1` [CBK165225], the “% of control remaining” value was 101.391.

As to `COc1cccc(C(=O)N2CCC(Cc3ccccc3-c3ccccc3)(C(N)=O)CC2)c1` [CBK285729], the “% of control remaining” value came out at 104.21.

`O=C(O)c1nccnc1C(=O)NCCc1c[nH]c2ccc(Cl)cc12` [CBK286630]: the “% of control remaining” value is reported as 77.6663.

With `Cc1ccc(CCNC(=O)c2snnc2C)cc1C` [CBK282051], the “% of control remaining” value is given as 99.8393.

Regarding `CCSc1nnc2c(n1)OC(C)Nc1ccccc1-2` (centres unmarked) [CBK025684], the “% of control remaining” value is recorded as 37.3026.

On to `CC(C(=O)N1CCC2(CC1)NC(=O)c1ccccc1N2)(c1ccccc1)c1ccccc1` [CBK286308], for which the “% of control remaining” value was found to be 35.8469.

As to `CC(C)NC(=O)NC(=O)C1CCN(CCCc2ccc(Cl)c(Cl)c2)CC1` [CBK034947], the “% of control remaining” value was determined as 88.2238.

In the case of `C=C(C)CNC(=O)c1cc(Br)cnc1N(C)S(C)(=O)=O` [CBK076498], the “% of control remaining” value is on record as 90.1944.

In the case of `O=CNCCCc1nc2ccccc2n1CCc1ccccc1` [CBK269393], the “% of control remaining” value is recorded as 89.3022.

For the compound `CC(C)c1ccc(C2C(C(=O)c3ccco3)=C(O)C(=O)N2CCCN(C)C)cc1` (centres unmarked) [CBK264549], the “% of control remaining” value stood at 105.795.

On to `Cc1cc(O)c(C(=O)Nc2cccc(Cl)c2)c(=O)n1Cc1ccccn1` [CBK287729], for which the “% of control remaining” value is on record as 76.6224.

Take `N#Cc1c2c(c(NCCN3CCCCC3)n3c1nc1ccccc13)CCC2` [CBK263140]: the “% of control remaining” value was found to be 91.1474.

For `Cc1ccccc1N1C(=O)c2ccc(Br)cc2C1=O` [CBK022430], the “% of control remaining” value was 22.0314.

Consider `COc1ncc(-c2nccnc2NCc2cccc(Cl)c2)c(OC)n1` [CBK037990], for which the “% of control remaining” value came out at 100.594.

In the case of `Cc1noc(C)c1NC(=O)c1n[nH]c2ccccc12` [CBK200301], the “% of control remaining” value was determined as 107.82.

With `O=C(NCCCO)c1ccc(/C=N/O)nc1` [CBK264560], the “% of control remaining” value is reported as 99.2383.
